Patent EP4806912A1, “DUAL AGONIST COMPOUND” (Chengdu Aoda Biotechnology Co., Ltd, priority 2023, dated 2025)
pEC50: −log10 of the molar value. At least one structure is not confirmed: it was looked up by name or label, or the drawing left a doubt. *1 amine or outer side, *2 acyl side, *3 side chain or, on linkers, in order; H or OH if unused. Where a SMILES comes first, the peptide text is derived from it. Side-chain parts run from the residue outwards. [ ]: non-standard residue; d: D form. The star is where a group is joined. X4 = O=C(O)CCCCCCCCCCCCCCCCCCC(=O)N[C@@H](CCCCCC(=O)NCCOCCOCCOCCOCCOCC(=O)*)C(=O)O; C20 diacid = O=C(O)CCCCCCCCCCCCCCCCCCC(=O)*; γGlu = O=C(O)[C@H](CCC(=O)[*:2])N[*:1]; AEEA = NCCOCCOCC(=O)O; Aib = CC(C)(N)C(=O)O; Ava = NCCCCC(=O)O

What was measured:
GLP-1R = target: T1, GLP-1R (Homo sapiens, UniProt P43220); assay: GLP-1 activity test (cAMP, chemiluminescence, CHO-K1 cell line stably expressing GLP-1R); type: cell-based; details: relative luminescence units, read-out: GLP-1 activity [EC50(pmol)]
T1 construct: expressed in transfected cells; host or cells: CHO-K1
Description: (§1) Upon stimulation by a specific agonist, GLP-1R activates the intracellular adenylate cyclase signaling pathway, resulting in an increase in cAMP levels and ultimately leading to insulin production and secretion. A cell line stably transfected with GLP-1R was stimulated with test compounds, thereby rapidly increasing intracellular cAMP levels. The relative luminescence units (RLU) of cells stimulated at various concentrations were measured by a chemiluminescence method, and the EC50 value of the agonist was calculated accordingly. This activity test method is currently a commonly used method for evaluating GLP-1 receptor agonist activity both domestically and internationally.
A CHO-K1 cell line stably expressing GLP-1R was used. The stable cells were stimulated with agonists at different concentrations, and the relative luminescence units after stimulation at each concentration were measured to calculate the EC50 value of the agonist.

GCG-R = target: T2, GCG-R (Homo sapiens, UniProt P47871); assay: GCG activity test (cAMP, chemiluminescence, CHO-K1 cell line stably expressing GCG-R); type: cell-based; details: relative luminescence units, read-out: GCG activity [EC50(nmol)]
T2 construct: expressed in transfected cells; host or cells: CHO-K1
Description: as §1, with “agonist, GCG-R” for “agonist, GLP-1R”, “with GCG-R” for “with GLP-1R”, “activity assay” for “activity test”, “evaluating GCG” for “evaluating GLP-1”
A CHO-K1 cell line stably expressing GCG-R was used. The stable cells were stimulated with agonists at different concentrations, and the relative luminescence units after stimulation at each concentration were measured to calculate the EC50 value of the agonist.

T1 sequence (P43220 24-463, species assumed): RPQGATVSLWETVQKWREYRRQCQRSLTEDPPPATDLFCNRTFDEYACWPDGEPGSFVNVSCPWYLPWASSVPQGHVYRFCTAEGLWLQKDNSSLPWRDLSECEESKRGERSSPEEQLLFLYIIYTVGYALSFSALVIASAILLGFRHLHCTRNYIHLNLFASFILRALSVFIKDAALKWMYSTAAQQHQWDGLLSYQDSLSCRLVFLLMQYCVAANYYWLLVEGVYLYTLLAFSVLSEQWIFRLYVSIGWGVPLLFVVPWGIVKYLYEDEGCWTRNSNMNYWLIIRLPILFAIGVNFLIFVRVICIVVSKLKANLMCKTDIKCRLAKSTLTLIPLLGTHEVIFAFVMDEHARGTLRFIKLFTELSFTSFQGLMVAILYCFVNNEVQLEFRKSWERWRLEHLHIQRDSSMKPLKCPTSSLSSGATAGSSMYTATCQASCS
T2 sequence (P47871 26-477, species assumed): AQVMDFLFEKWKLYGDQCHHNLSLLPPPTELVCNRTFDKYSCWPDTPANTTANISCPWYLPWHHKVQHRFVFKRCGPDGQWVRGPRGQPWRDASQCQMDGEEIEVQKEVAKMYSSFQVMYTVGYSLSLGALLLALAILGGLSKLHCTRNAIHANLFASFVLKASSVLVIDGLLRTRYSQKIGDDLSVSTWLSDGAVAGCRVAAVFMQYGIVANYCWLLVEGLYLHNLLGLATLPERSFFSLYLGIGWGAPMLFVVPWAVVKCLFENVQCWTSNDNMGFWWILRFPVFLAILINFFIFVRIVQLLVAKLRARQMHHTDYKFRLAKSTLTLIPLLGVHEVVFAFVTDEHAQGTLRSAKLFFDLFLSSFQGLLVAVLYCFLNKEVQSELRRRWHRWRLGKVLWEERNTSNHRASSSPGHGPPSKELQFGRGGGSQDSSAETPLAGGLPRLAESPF

Compound	pEC50 (GLP-1R)	pEC50 (GCG-R)
CC(C)C[C@H](NC(=O)[C@H](CC(C)C)NC(=O)[C@H](Cc1c[nH]c2ccccc12)NC(=O)[C@H](CCC(=O)O)NC(=O)[C@@H](NC(=O)[C@H](Cc1ccccc1)NC(=O)[C@H](CCC(=O)O)NC(=O)[C@H](CCCCNC(=O)COCCOCCOCCOCCOCCNC(=O)CCCCC[C@H](NC(=O)CCCCCCCCCCCCCCCCCCC(=O)O)C(=O)O)NC(=O)[C@H](C)NC(=O)[C@H](CCCCN)NC(=O)[C@H](CCCCN)NC(=O)[C@H](CCC(=O)O)NC(=O)[C@H](CC(=O)O)NC(=O)[C@H](CC(C)C)NC(=O)[C@H](Cc1ccc(O)cc1)NC(=O)[C@H](CCCCN)NC(=O)[C@H](CO)NC(=O)[C@H](Cc1ccc(O)cc1)NC(=O)[C@H](CC(=O)O)NC(=O)[C@H](CO)NC(=O)[C@@H](NC(=O)[C@H](Cc1ccccc1)NC(=O)[C@@H](NC(=O)CNC(=O)[C@H](CCC(N)=O)NC(=O)C(C)(C)NC(=O)[C@@H](N)Cc1c[nH]cn1)[C@@H](C)O)[C@@H](C)O)C(C)C)C(=O)N[C@@H](CCC(=O)O)C(=O)NCCCCC(=O)N1CCC[C@H]1C(=O)N[C@@H](CO)C(=O)N[C@@H](CO)C(=O)NCC(=O)N[C@@H](C)C(=O)N1CCC[C@H]1C(=O)N1CCC[C@H]1C(=O)N1CCC[C@H]1C(=O)N[C@@H](CO)C(N)=O [Compound 4] (H-H[Aib]QGTFTSDYSKYLDEKKAK(X4)EFVEWLLE[Ava]PSSGAPPPS-NH2)	9.95	8.55
CC(C)C[C@H](NC(=O)[C@H](CC(C)C)NC(=O)[C@H](Cc1c[nH]c2ccccc12)NC(=O)[C@H](CCC(=O)O)NC(=O)[C@@H](NC(=O)[C@H](Cc1ccccc1)NC(=O)[C@H](CCC(=O)O)NC(=O)[C@H](CCCCNC(=O)COCCOCCNC(=O)COCCOCCNC(=O)CC[C@H](NC(=O)CCCCCCCCCCCCCCCCCCC(=O)O)C(=O)O)NC(=O)[C@H](C)NC(=O)[C@H](CCCCN)NC(=O)[C@H](CCCCN)NC(=O)[C@H](CCC(=O)O)NC(=O)[C@H](CC(=O)O)NC(=O)[C@H](CC(C)C)NC(=O)[C@H](Cc1ccc(O)cc1)NC(=O)[C@H](CCCCN)NC(=O)[C@H](CO)NC(=O)[C@H](Cc1ccc(O)cc1)NC(=O)[C@H](CC(=O)O)NC(=O)[C@H](CO)NC(=O)[C@@H](NC(=O)[C@H](Cc1ccccc1)NC(=O)[C@@H](NC(=O)CNC(=O)[C@H](CCC(N)=O)NC(=O)C(C)(C)NC(=O)[C@@H](N)Cc1c[nH]cn1)[C@@H](C)O)[C@@H](C)O)C(C)C)C(=O)N[C@@H](CCC(=O)O)C(=O)NCCCCC(=O)N1CCC[C@H]1C(=O)N[C@@H](CO)C(=O)N[C@@H](CO)C(=O)NCC(=O)N[C@@H](C)C(=O)N1CCC[C@H]1C(=O)N1CCC[C@H]1C(=O)N1CCC[C@H]1C(=O)N[C@@H](CO)C(N)=O [Compound 13] (H-H[Aib]QGTFTSDYSKYLDEKKAK([AEEA-AEEA-γGlu-C20 diacid])EFVEWLLE[Ava]PSSGAPPPS-NH2)	9.98	8.59
